Laboratory results: the supplement of paper PMC4967469
Lines with a small IC50 respond at low doses; fits outside the tested doses are given as limits. AUC sums up the same curve from the lowest dose to the 256-fold higher top dose: 1 means no effect, lower means more sensitive.

Compound: Cn1c(=O)n(-c2ccc(C(C)(C)C#N)cc2)c2c3cc(-c4cnc5ccccc5c4)ccc3ncc21 [NVP-BEZ235]
Test: Viability of human cancer cell lines after 72 h of drug (GDSC screen)
Experimental: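 Human cancer cell lines in 384-well plates, medium with 10% serum, drug for 72 h over a 256-fold dose range (nine 2-fold or five 4-fold steps up to the top dose). Adherent lines were fixed and stained with the nucleic acid dye Syto60, suspension lines read with resazurin; signal relative to control wells, capped at 0 and 100%. One two-parameter sigmoid per drug and line, fitted in a mixed model over all curves with the slope shared within a line.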

| Cell Line | AUC | IC50 [nM] |
| --- | --- | --- |
| KYSE-150 (oesophagus, adherent, top dose 0.25 µM) | 0.591 | 27.5 |
| SUP-B8 (B-cell leukaemia, suspension, top dose 0.25 µM) | 0.665 | 44.8 |
| CAL-27 (head and neck, adherent, top dose 0.25 µM) | 0.72 | 66.5 |
| PA-1 (ovary, adherent, top dose 0.25 µM) | 0.669 | 41.1 |
| MOLP-8 (myeloma, suspension, top dose 0.25 µM) | 0.672 | 46 |
| VCaP (prostate, adherent, top dose 0.25 µM) | 0.914 | > 250 |
| ATN-1 (T-cell lymphoblastic leukaemia, suspension, top dose 0.25 µM) | 0.561 | 22.6 |
| LC-2-ad (lung adenocarcinoma, adherent, top dose 0.25 µM) | 0.742 | 78.4 |
| IPC-298 (melanoma, adherent, top dose 0.25 µM) | 0.777 | 98.7 |
| JM1 (B-cell lymphoma, suspension, top dose 0.25 µM) | 0.807 | 107 |
| NB17 (neuroblastoma, adherent, top dose 0.25 µM) | 0.934 | > 250 |
| DAN-G (pancreas, adherent, top dose 0.25 µM) | 0.715 | 57.7 |
| SNU-182 (liver, adherent, top dose 0.25 µM) | 0.833 | 172 |
| 697 (lymphoblastic leukaemia, suspension, top dose 0.25 µM) | 0.552 | 21 |
| VMRC-LCD (lung adenocarcinoma, adherent, top dose 0.25 µM) | 0.815 | 110 |
| HCC1187 (breast, suspension, top dose 0.25 µM) | 0.886 | > 250 |
| MOLM-16 (acute myeloid leukaemia, suspension, top dose 0.25 µM) | 0.644 | 37.1 |
| FU97 (stomach, adherent, top dose 0.25 µM) | 0.657 | 43.4 |
| CAPAN-1 (pancreas, adherent, top dose 0.25 µM) | 0.946 | > 250 |
| MFM-223 (breast, adherent, top dose 0.25 µM) | 0.788 | 108 |
| NCI-SNU-1 (stomach, suspension, top dose 0.25 µM) | 0.967 | > 250 |
| SK-N-SH (neuroblastoma, adherent, top dose 0.25 µM) | 0.759 | 86.8 |
| RERF-LC-KJ (lung adenocarcinoma, adherent, top dose 0.25 µM) | 0.742 | 79.2 |
| SW1710 (bladder, adherent, top dose 0.25 µM) | 0.55 | 21.4 |
| D-283MED (medulloblastoma, adherent, top dose 0.25 µM) | 0.686 | 49 |
| CAL-51 (breast, adherent, top dose 0.25 µM) | 0.577 | 24.6 |
| MZ1-PC (pancreas, adherent, top dose 0.25 µM) | 0.85 | > 250 |

| Cell Line | AUC | IC50 [nM] |
| --- | --- | --- |
| NCI-H647 (non-small cell lung carcinoma, adherent, top dose 0.25 µM) | 0.642 | 39.5 |
| MDA-MB-453 (breast, adherent, top dose 0.25 µM) | 0.938 | > 250 |
| MEL-JUSO (melanoma, adherent, top dose 0.25 µM) | 0.737 | 81.2 |
| BFTC-905 (bladder, adherent, top dose 0.25 µM) | 0.695 | 50.3 |
| COLO-668 (small cell lung carcinoma, adherent, top dose 0.25 µM) | 0.925 | > 250 |
| SH-4 (melanoma, adherent, top dose 0.25 µM) | 0.734 | 108 |
| NCI-H2342 (lung adenocarcinoma, adherent, top dose 0.25 µM) | 0.897 | > 250 |
| H2461 (mesothelioma, adherent, top dose 0.25 µM) | 0.821 | 195 |
| SCC-25 (head and neck, adherent, top dose 0.25 µM) | 0.742 | 85.4 |
| SK-LU-1 (lung adenocarcinoma, adherent, top dose 0.25 µM) | 0.596 | 30.9 |
| H4 (glioma, adherent, top dose 0.25 µM) | 0.481 | 13.9 |
| HAL-01 (lymphoblastic leukaemia, suspension, top dose 0.25 µM) | 0.585 | 26 |
| NCI-H1944 (lung adenocarcinoma, adherent, top dose 0.25 µM) | 0.759 | 92.6 |
| L-428 (Hodgkin lymphoma, suspension, top dose 0.25 µM) | 0.757 | 76.9 |
| EW-13 (Ewing sarcoma, suspension, top dose 0.25 µM) | 0.685 | 54.9 |
| A431 (skin, adherent, top dose 0.25 µM) | 0.759 | 84.1 |
| TT2609-C02 (thyroid, adherent, top dose 0.25 µM) | 0.561 | 23.2 |
| H9 (lymphoid neoplasm, suspension, top dose 0.25 µM) | 0.828 | 118 |
| NCI-H69 (small cell lung carcinoma, suspension, top dose 0.25 µM) | 0.833 | 188 |
| KINGS-1 (glioma, adherent, top dose 0.25 µM) | 0.711 | 78.3 |
| HCC-15 (lung squamous cell carcinoma, adherent, top dose 0.25 µM) | 0.675 | 55.6 |
| NCI-H2066 (small cell lung carcinoma, adherent, top dose 0.25 µM) | 0.923 | > 250 |
| P32-ISH (Burkitt lymphoma, suspension, top dose 0.25 µM) | 0.793 | 84.3 |
| DBTRG-05MG (glioma, adherent, top dose 0.25 µM) | 0.646 | 42.8 |
| ASH-3 (thyroid, adherent, top dose 0.25 µM) | 0.771 | 95.8 |
| OVCA420 (ovary, adherent, top dose 0.25 µM) | 0.783 | 144 |
| RPMI-8402 (T-cell lymphoblastic leukaemia, suspension, top dose 0.25 µM) | 0.699 | 50.9 |

| Cell Line | AUC | IC50 [nM] |
| --- | --- | --- |
| CL-11 (large intestine, adherent, top dose 0.25 µM) | 0.838 | 201 |
| YKG-1 (glioma, adherent, top dose 0.25 µM) | 0.683 | 51.3 |
| no-11 (glioma, adherent, top dose 0.25 µM) | 0.771 | 121 |
| NU-DUL-1 (B-cell lymphoma, suspension, top dose 0.25 µM) | 0.608 | 29 |
| C-33-A (cervix, adherent, top dose 0.25 µM) | 0.776 | 100 |
| DK-MG (glioma, adherent, top dose 0.25 µM) | 0.783 | 165 |
| P31-FUJ (acute myeloid leukaemia, suspension, top dose 0.25 µM) | 0.921 | 225 |
| GI-ME-N (neuroblastoma, adherent, top dose 0.25 µM) | 0.59 | 30.1 |
| IGR-37 (melanoma, adherent, top dose 0.25 µM) | 0.583 | 25.9 |
| REH (B-cell leukaemia, suspension, top dose 0.25 µM) | 0.733 | 69.7 |
| SK-MM-2 (myeloma, suspension, top dose 0.25 µM) | 0.865 | 238 |
| TUR (B-cell lymphoma, suspension, top dose 0.25 µM) | 0.544 | 20.4 |
| NB7 (neuroblastoma, adherent, top dose 0.25 µM) | 0.845 | 193 |
| HSC-2 (head and neck, adherent, top dose 0.25 µM) | 0.761 | 82.6 |
| NCI-H1092 (small cell lung carcinoma, suspension, top dose 0.25 µM) | 0.947 | > 250 |
| UACC-893 (breast, adherent, top dose 2 µM) | 0.665 | 422 |
| CAL-120 (breast, adherent, top dose 0.25 µM) | 0.625 | 38.2 |
| MDA-MB-157 (breast, adherent, top dose 0.25 µM) | 0.665 | 45.7 |
| 23132-87 (stomach, adherent, top dose 0.25 µM) | 0.818 | 148 |
| YH-13 (glioma, adherent, top dose 0.25 µM) | 0.571 | 24.6 |
| NCI-H2347 (lung adenocarcinoma, adherent, top dose 0.25 µM) | 0.78 | 127 |
| SK-MEL-28 (melanoma, adherent, top dose 2 µM) | 0.441 | 86.7 |
| DJM-1 (skin, adherent, top dose 0.25 µM) | 0.867 | 223 |
| KARPAS-45 (lymphoblastic leukaemia, suspension, top dose 0.25 µM) | 0.682 | 45.5 |
| HCC1419 (breast, adherent, top dose 0.25 µM) | 0.637 | 43.8 |
